# Reference: PubChem BioAssay (NCI)
# Some structures have more than one record in an assay (separate samples or runs), and their calls can disagree.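 Growth was measured after 48 h exposure to one concentration of compound in 96-well plates. Values under 10 count as active.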 The source holds more than one record for some entries. The other results are left out here. An entry can have further records. The screen tested this drug many times, at its own concentration, as given; each value is one run. Counts like (3×) give the number of equal values in this list.
# Experiments:
# [1] = test system: COLO 205 colon; experiment: NCI-60 one-dose screen, 48 h (100 = growth as untreated, 0 = no growth, -100 = all killed); conditions: 25 µM
# [2] = test system: SF-295 CNS; experiment: as above; conditions: 0.25 µM
structure (smiles),measurement,setting,value
COc1cccc2c1C(=O)c1c(O)c3c(c(O)c1C2=O)C[C@@](O)(C(=O)CO)C[C@@H]3OC1CC(N)C(O)C(C)O1 (stereo not given in full),growth,[1]; runs of 1998,"active: -79.4, -88.6 (2×), -96.2, -65.1, -54.6, -90.5, -52.8, -84.4, -81, -87.8, -96.6, -86.3, -72.8, -76.2, -40.7, -73.8, -49.9, -3.45, -46.1, -53.1, -45.2, -50.9, -79.8, -76.6, -57.8%"
same,growth,[1]; runs of 1999,"active: -80.7, -61.8, -82.6, -62.6, -84.9, 2.29, -70.6, 3.06, -53.9, 1.76, 2.67, 3.61% and inactive: 12.9%"
same,growth,[1]; runs of 2000,"active: -100% (3×), 3.65%"
same,growth,[2]; runs of 2006,"inactive: 17.8%, 12.4%"
same,growth,[2]; runs of 2007,"inactive: 13.5, 14.3, 22, 17, 15.7, 15.4, 20.7, 28.7, 21.1, 25.9, 42.6, 25.1, 34.4, 23, 38.4, 17.1, 27.5, 25.8, 22.5, 32.3, 28, 35.4, 17.7, 67.6, 21.4, 22.8, 34.8% and active: -5.95, -6.31, -5.28, 0.876, 0.789, 8.21, 2, -5.62, 7.53, -15.1, -6.02, -5.78, -10.7, 9.64, -30, -7.42%"
same,growth,[2]; runs of 2008,"inactive: 39.3 (2×), 11.9, 37.9, 29.3 (2×), 35.3, 29.8, 36.1, 38.9, 20.7, 29.1, 32.8, 35.7, 24.3, 22.3 (2×), 20.5, 19.7, 20.4, 15.4, 31, 107, 22.8, 20.9, 18.5, 12.3, 23.5, 29, 11, 16.5, 11.4, 48, 30.5, 37.2, 43.8, 46.7, 22.7, 19.2, 27.5, 28, 26.4, 26.7% and active: -44.2, -16.8, -6.05, -22.7, 9.69, 8.24, -8.73%"
same,growth,[2]; runs of 2009,"inactive: 20.9, 24.4, 32.7, 36, 24.8, 30.2, 30 (2×), 26.9, 24 (2×), 27 (2×), 25.6, 46.1, 33.1, 23.2, 27.6, 22.5, 20.7, 23.5, 28.3 (3×), 20.2, 19.9, 13.4, 34, 13.5, 29, 28.8, 36.8, 13.8, 34.9, 41.7, 27.8, 31.3, 35.9, 25.4, 22.6, 13.1, 16.6, 32.3, 55.6, 30.7, 13.2, 36.4, 25.5, 31.1, 37.3, 34.4% and active: 4.01, 9.5, -7.62, 2.17, -27.6, -42.1, -4.22, 7.84, -5.8, 3.39, -12.2, 9.04, 2.06, 6.6, -0.221%"
same,growth,[2]; runs of 2010,"inactive: 17.4, 33.2, 20.7, 25.9, 29.1, 27.4, 26, 21.3, 34.5, 14.7, 26.4, 43.1, 40.9, 50.2, 11.9, 29.7, 20.5 (2×), 16.8, 15.8, 34.1, 22.5, 22.6, 20.8, 17.7, 13, 23.2, 11.8, 18.8 (2×), 32.2, 18.4, 26.7, 15.1, 14.1 (2×), 17.8, 19.9, 17.9% and active: 8.76, 5.49, -10.4, 9.75, 9.07, 9.2, 7.36, -7.36, 7.48, 0.547, -40.4, 6.39, 5.93%"
same,growth,[2]; runs of 2011,"inactive: 20.7, 31.3, 28.7 (2×), 28.8, 35.4, 34.5, 30.7, 20.9 (2×), 23.6, 32.3, 34.9, 18.7, 30.5 (2×), 30.4, 32.7, 31.1 (2×), 36.1, 35.6, 41.2, 39.9, 31.7, 40.4, 41.8, 33.4 (2×), 32.6, 33.3, 14.8, 21.6 (2×), 26.8, 21.9, 17.5, 25.7 (2×), 27.3, 27.8, 27.5, 25.4, 27.7, 19.9, 23.9, 26.7, 36.5, 40.8, 40.1, 33.2, 39.8, 26.3, 26% and active: 8.47%"
same,growth,[2]; runs of 2012,"inactive: 23.6, 15.6, 17.6, 28.1, 32.6, 23.4, 32.3, 30.8, 23.2, 29, 19.4, 31.7, 13.1, 18.4, 18.5, 17.2, 12.2, 21.2, 25.4, 27.4, 32.8, 27.5, 20, 41.7, 25.1, 31.9, 13 (2×), 25.7, 27, 17, 33.2, 15.8, 41.4, 32.7, 12.9, 35.8, 32.9, 15.5, 20.4% and active: 3.08, -1.49, -10.8, 9.59, -0.19, -8.24, 3.78, -28.3, -30, 9.94, -52.3, -6.65, 6.35, -31.5, -2.13, 4.29, 9.28, -25.3%"
same,growth,[2]; runs of 2013,"inactive: 10.5, 12.3, 16.9, 15.8, 28.9, 10.6, 19.4, 28.7 (2×), 29.1 (2×), 30.7, 26.8 (2×), 35.8 (2×), 33.9 (2×), 30.9, 29.6, 25.9, 37.2, 31.5, 36, 36.1 (2×), 45.1, 15.5, 34.4, 38.5, 39.9, 33.4, 39.6, 38.9, 24.8, 35, 36.3, 38.3, 32.9, 36.7, 45.3, 51.5, 42.1, 39.1, 46, 43.3, 39, 41.5, 43.9, 50.2, 53.4, 40.1, 43, 44.8, 37.3, 52.3, 39.4, 31, 40.3, 41.6, 50.3, 28.3, 24.3, 25.4, 30.2, 29% and active: 0.505, 5.61, 3.66, -15.5, -4.38, 3.5%"
same,growth,[2]; runs of 2014,"inactive: 31.9, 27.9, 20.7, 23.9 (2×), 14.2, 29.1 (2×), 25.8, 36.4 (2×), 37.1, 26.3, 50.4, 24.8 (2×), 25 (3×), 32.3, 34 (2×), 39.9, 51.1, 30.9, 21.6 (2×), 31.1, 34.2, 26.9, 24.9, 19.9 (2×), 28.3, 35.3, 30.5 (2×), 27.4, 26.5, 30.3, 28.9, 23.4, 27.2, 30, 37.6, 21.2, 28.1, 27.8, 34.1, 30.2, 18.1, 18.5, 18.8, 22.8, 42.3, 31.3, 19.4, 23, 14, 28.2, 31.7, 33.9, 22.6, 29.3, 22.5, 20.5, 29.8, 25.5, 36.1, 21.3, 18, 26.4, 26.7%"
same,growth,[2]; runs of 2015,"inactive: 22.5 (2×), 29.6, 37.7, 16.5 (2×), 15.5, 20 (2×), 23.3, 26.1, 22.4 (2×), 30.5, 20.7, 25.9 (2×), 32.5, 25.4 (2×), 21.6, 17.1 (3×), 10.3, 14.4, 20.2, 27.6 (2×), 35.8, 25.7 (2×), 26.3 (3×), 23, 25.8, 20.5 (2×), 27.1, 17.8, 17.5, 16.3, 17.2, 16.1, 23.9, 38.4, 20.9, 28.8, 23.7, 18.4 (2×), 21.4, 21.3, 19.4, 14, 27, 51.7, 25, 27.3, 11.3, 15.8, 20.3, 17.6, 35, 37, 36.6, 37.4, 24.8, 27.8, 23.6, 22.3, 13.9, 16.6, 30.3, 33.3, 34.5, 24.4% and active: 5.29%"
same,growth,[2]; runs of 2016,"inactive: 19.6, 11.7, 16.2, 20.8, 33.4, 33.7 (4×), 35.6, 20.5, 25.4, 29.6, 26.9, 24, 33.8, 24.8, 34.6, 28.1 (2×), 16 (2×), 16.6, 13.2, 24.3, 25.8, 21.3 (2×), 22 (2×), 23.7, 22.8, 30.5 (2×), 27.3, 30.4, 31.5, 49.5, 33.1, 49.7, 30.7, 39.8, 37, 33.3, 36.5, 36.8 (2×), 29.8, 32.7, 29.7, 32.9, 32.5, 36.9, 27.6, 32.3, 49, 31.2, 35.4, 39.5, 40, 40.6, 43, 47.9, 44, 49.8, 46, 42.8 (2×), 50, 34.4, 38.1, 37.5, 40.4, 38.8, 42.2, 36, 41.3, 36.4, 34.1, 35.7% and active: 6.98%, 7.48%"
same,growth,[2]; runs of 2017,"inactive: 35, 35.9, 25.5 (3×), 27.5, 28.9 (2×), 31.7 (2×), 26.9 (2×), 29.1, 21.6, 33 (2×), 29.3, 30.8 (2×), 33.6, 30.2, 31, 23.3, 25.1, 26.3, 26.8, 28.3, 25, 31.8 (2×), 22.5, 31.3, 28.8, 32.6, 25.4 (2×), 37.4, 32.8, 35.4, 28.1, 33.1, 33.8, 36.9 (2×), 30, 27.3 (2×), 31.9, 27.7, 35.8, 26 (2×), 30.5, 41, 46.1, 22.7, 29.6, 24, 27.6 (4×), 32, 26.7, 35.1, 23.5, 30.6, 29.9, 39.4, 31.1, 18.6, 22.9, 29.8, 34.2, 28%"
